Assay [1] addresses T1, in vitro translated [35S]methionine-labeled CD40bp (human, UniProt Q13114 1-568, [35S]methionine label).
T1 construct: Translated in reticulocyte lysate from the 2.2-kilobase pair cDNA excised from pACT; It migrated at 64 kDa, close to the predicted mass
T1 sequence: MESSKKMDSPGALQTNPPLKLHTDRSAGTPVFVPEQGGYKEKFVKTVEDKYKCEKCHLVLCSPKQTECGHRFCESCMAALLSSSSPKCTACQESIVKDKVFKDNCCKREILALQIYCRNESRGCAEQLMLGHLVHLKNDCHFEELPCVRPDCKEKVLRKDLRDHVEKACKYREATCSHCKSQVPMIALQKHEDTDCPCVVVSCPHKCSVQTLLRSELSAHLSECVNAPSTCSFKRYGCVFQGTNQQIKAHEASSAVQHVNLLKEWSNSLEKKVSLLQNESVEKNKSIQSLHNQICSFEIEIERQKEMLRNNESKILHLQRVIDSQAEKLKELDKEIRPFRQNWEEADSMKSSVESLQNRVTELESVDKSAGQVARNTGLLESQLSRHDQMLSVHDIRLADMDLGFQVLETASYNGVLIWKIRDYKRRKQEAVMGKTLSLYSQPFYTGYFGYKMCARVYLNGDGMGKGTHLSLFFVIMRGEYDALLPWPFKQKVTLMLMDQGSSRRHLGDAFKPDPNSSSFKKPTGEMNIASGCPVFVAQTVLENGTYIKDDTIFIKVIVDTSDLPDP
Briefly: GST pull-down of in vitro translated 35S-labeled protein, autoradiography. As to the method:
(§1) GST Fusion Protein Expression and In Vitro Binding Assay—Native (CD40T) and mutant (CD40A) CD40 sequences used in the construction of the yeast bait vectors were excised and subcloned into the glutathione S-transferase ("GST") fusion protein vector pGSTag (as described in Ron et al. (1992) *BioTechniques* 13:866-869) and transformed into the *Escherichia coli* strain BL21 […] pLysS (as described in Studier et al. (1991) *J. Mol. Bio.* 219:37-44). GST and GST fusion proteins were prepared using published procedures of Studier et al. (1991) supra, and the recombinant proteins were immobilized onto glutathione-agarose beads at a concentration of about 8 mg/ml (as described in Harper et al. (1993) supra).
(§2) Figure 2: FIGS. 2A and 2B show the interaction of in vitro translated CD40bp with GST fusion proteins. [^35S]Methionine-labeled CD40bp or luciferase protein as control was incubated with GST alone, GSTCD40T (native CD40 cytoplasmic domain), or GSTCD40A (mutant CD40 cytoplasmic domain $Thr^234 \rightarrow Ala$). Following incubation and washing, GST beads were boiled in SDS-sample buffer and resolved on a 10% acrylamide gel, and bound protein was visualized by autoradiography.

In assay [2] the target is [35S]methionine-labeled luciferase protein (UniProt P08659 = luciferase, limits assumed, [35S]methionine label). Described as above. As to the method: as §1, §2

B1: GST alone (other)
chain: not shown
notes: Control beads; also called glutathione S-transferase
B1: the binding result in assay [1] and in assay [2] was “no binding” in each case.

These data come from patent US7544481 (REGENTS OF THE UNIVERSITY OF MICHIGAN, dated 2009).
